# ChEMBL document CHEMBL4888484, “Replenishing the malaria drug discovery pipeline: Screening and hit evaluation of the MMV Hit Generation Library 1 (HGL1) against asexual blood stage Plasmodium falciparum ,using a nano luciferase reporter read-out” (2022)
# Hit rate of the full screen: of about 150,000 compounds, about 540 (0.36%) showed an effect of 50% or more. The list shows a part of the results.
# System: Plasmodium falciparum
# Assay: Primary screen in NF54 nanoGlo assay, in single point, at 2uM, 72h; a lower Z score goes with more inhibition
# Assay type: functional, Erythrocyte
# Conditions: timepoint 72 hour
Compound,% Inhibition [%],Z score
O=C(NCc1ccoc1)c1ccc2nc(-c3ccc(F)cc3)cn2c1,-24,2.4
O=C1O[C@]2(CCCN(C(=O)C3CCC3)C2)c2ccccc21,-4,0.51
O=C(c1cnsn1)N1CCO[C@H](c2ccccc2)CC1,1,-0.07
O=C(Nc1ccc(C(F)(F)F)cc1)N1CCN(c2nc(-c3ccco3)nc3cc(Cl)ccc23)CC1,-4,0.59
COCCc1nsc(NCC2(O)CCCCC2)n1,-8,0.8
Cc1cc(=O)c(C(=O)O[C@H](c2ccccc2C)C(F)(F)F)c[nH]1,4,-0.53
COc1ccc2c(c1)CCCN(C(=O)c1c[nH]c(C)cc1=O)C2,12,-1.43
CN(C)c1ccc(C(=O)N2CCC3(CC2)C[C@H](O)CNC3=O)cc1,-11,1.45
CNC(=O)[C@@H](NS(=O)(=O)c1cc(Cl)ccc1C)C(C)C,-14,2.28
Cc1csc(CNC(C)CC(O)c2cccs2)n1 (configuration not stated),-8,1.04
Cc1ccc([C@H]2c3ccccc3CCN2C(=O)C2CCCCC2)cc1,-5,0.8
O=C(NC1CCN(C2CC2)CC1)c1ccc(O)c(Cl)c1,4,-0.37
Cn1cccc(C(=O)NC2CC3C(=O)Nc4ccccc4N3C2)c1=O (configuration not stated),-14,2.66
C[C@H](O)c1onc(-c2cccs2)c1C(=O)N(C)Cc1ccccc1,-2,0.24
CCn1c(-c2cc(NC(=O)CC(C)C)[nH]n2)cc2cc(OC)ccc21,-7,0.85
CC(C)(C)OC(=O)N1CCC2(CC1)N=C(c1cccs1)C(=O)N2Cc1cccc(Cl)c1,-12,1.48
CC(C)c1nnc(CN2CCS(=O)(=O)C3CCCC32)s1 (configuration not stated),1,-0.13
Cc1ccc(OCCNCCO)c(Br)c1,-22,2.97
CCCCS(=O)(=O)NCc1nc(C(C)(C)C)cs1,-9,1.17
Cc1ccc(-c2ccccc2CNc2cn(C)nn2)o1,-16,2.23
NC(=O)C1CCN(C(=O)c2ccc3nc(-c4ccccc4)cn3c2)CC1,-11,1.9
Cc1ncoc1C(=O)N1CCC[C@H](CC(F)(F)F)C1,-12,1.59

Compound,% Inhibition [%],Z score
CN(C)[C@@H](CNS(=O)(=O)c1ccc(-n2cccn2)cc1)c1cc2ccccc2o1,-4,0.51
COc1ccnc(CN(C)Cc2cccc(N(C)C)c2)c1,5,-0.95
CCc1noc(-c2nn(C)c3c2CN(C(=O)C(CC)CC)C3)n1,-3,0.58
CC(=O)N1CCc2cc(CNC(=O)COc3ccccc3)ccc21,5,-0.95
COc1ccccc1C(=O)N[C@](C)(CO)CCF,12,-1.34
CC(C)Cn1cc(C(=O)N2CCCCC[C@H]2c2ncon2)cn1,4,-0.8
C=CCN1CC[C@H](N(C)C(=O)Nc2ccncc2C)C1=O,3,-0.4
CCc1cc(Oc2cncc(Br)c2)n2ncnc2n1,-11,2.16
COc1nccc(N2CCn3nc(CN4CCC[C@H](O)C4)cc3C2)c1C#N,-8,1.05
CCOC(=O)c1cc(C2CC2)nc2c1c(=O)n(CC(=O)N1CCc3ccccc31)c(=O)n2C,-8,1.12
Cc1ccc(CN(C)C(=O)C2(Nc3ccccc3)CCCC2)o1,-7,1.37
O=C(NC[C@H]1CCN(Cc2ccc3nonc3c2)C1)c1ccccn1,-10,1.4
Cc1cnc(C(=O)N2CCC[C@H]2c2ccc3c(c2)OCCCO3)cn1,0,0.05
Cc1cccc(N2CCN(C(=O)CCS(=O)(=O)c3ccc4c(c3)CC(=O)N4C)C[C@@H]2C)c1,-14,1.83
C[C@@H]1CN(C(=O)c2cccc(-c3cnc(=O)[nH]c3)c2)C[C@H](C)O1,2,-0.37
COCCCN(Cc1ccc(OC)c(OC)c1)C[C@H](O)C(C)C,5,-0.77
CCNC(=O)N(Cc1cccc(OS(=O)(=O)C(C)C)c1)CC(C)C,5,-0.53
COc1c(F)cc(CN2CCC3(CC2)c2ccccc2C[C@@H]3O)cc1Cl,-3,0.43
COc1ccc(-c2nnc([C@H]3CCN(Cc4ccc5c(c4)OCO5)C3)o2)cc1,-12,1.98
C/C(=C\c1ccco1)CN1CC[C@H](CNC(=O)C(C)(C)C)[C@@H](O)C1,-15,1.59
CC(C)c1ccc(NCC2(CO)CCC2)nn1,-7,0.9
OC(CN(CC1CCOC1)C1CC1)c1ccc(Br)cc1 (configuration not stated),-2,0.32

Compound,% Inhibition [%],Z score
Cc1noc(C)c1S(=O)(=O)N1CCC(c2nnc(C(=O)Nc3ccc(F)cc3F)s2)CC1,-22,2
COc1ccc(-c2nc(-c3ccc(OC)c4c3OCC4=O)cs2)cc1,1,-0.24
Cc1cc(C(=O)N2CCC(O)(Cc3ccccn3)CC2)cc(C)c1F,-11,1.51
Clc1ccccc1C1(c2nnc(C3CC3)o2)CCOCC1,13,-1.65
Cc1cc(NC(=O)N2CCCN3c4ccccc4C[C@H]3C2)cn2ccnc12,-8,0.66
Cc1ccncc1C(=O)N1CCC[C@H](Cn2cc(C(C)(C)N)nn2)C1,-13,1.83
CCCc1nc(Cn2nc(C)nc2C(F)F)no1,-7,0.72
COc1ccc2[nH]c(CN3C[C@H](N(C)C)C[C@H]3C(=O)O)c(C)c2c1,5,-0.7
CCC1C(c2ccc(C)cc2)CCN1Cc1nc(CC(=O)NC)no1 (configuration not stated),6,-0.78
C[C@H]1c2nncn2CCN1C(=O)C1CC(O)(C2CCCCC2)C1 (some centres not stated),0,0.06
CC1Oc2ccc(NC(=O)NCC3Cc4ccccc4O3)cc2NC1=O (configuration not stated),3,-0.42
COc1ccc(S(=O)(=O)N2CCC(c3nc4ccccc4o3)CC2)cc1,-6,0.66
CCNc1ccnc(N(C)Cc2nc(CC)no2)n1,-11,2.14
CCCS(=O)(=O)N(C)Cc1ccc(OC)cc1Cl,-4,0.45
C[C@H]1CN(C(=O)COc2ccc(F)cc2)C[C@]1(O)C1CCC1,-4,0.56
CCc1ccc([C@@H]2CC(=O)NC(NC(=O)c3ccccc3C)=N2)cc1,-8,0.94
CCn1cc(C)c(C(=O)O)c1CC(=O)NCc1ccccc1F,0,0
Cc1nn(C)c(C)c1-c1cc(C(=O)NC[C@@H]2COc3ccccc3C2)n(C)n1,-4,0.41
CC1CN(C(C)c2nc(-c3ccco3)no2)CC(C)O1 (configuration not stated),7,-1.43
CC1(C)C(=O)NC(=O)N1CC(=O)N1CCC(Cc2ccccc2)CC1,-4,0.76
Cc1ccn2cc(C(=O)N3CCC(Cc4ccccc4)CC3)nc2c1,-11,1.6
CCC1(CC)NC(=O)N(C[C@H](O)c2ccc(F)cc2F)C1=O,4,-0.67

Compound,% Inhibition [%],Z score
Cc1c(C(=O)Nc2cccc(S(=O)(=O)NC3CC3)c2)cnn1C,34,-1.16
CN(CC(C)(CO)CO)c1ccnc(C(C)(C)C)n1,-13,1.57
CC[C@H](NC(=O)c1csc(C(C)C)n1)c1ncnn1C,-13,2.41
Cc1cccc(-c2ncc(C(=O)NCc3ccc(F)cc3)c(N3CCN(c4ccccc4F)CC3)n2)c1,-12,1.26
Cc1ccc([C@H]2C[C@@H](O)[C@@H](O)[C@@H]2NS(=O)(=O)c2ccccc2)cc1,-4,0.63
Cn1cc(C(=O)Nc2ccc(Oc3ccccc3)cc2)nn1,-14,2.04
O=S(=O)(c1ccc(Cl)s1)N1CCC(N2CCc3sccc3C2)CC1,45,-7.91
Cc1nnc(NC(=O)COc2ccc3c(c2)C(=O)CC3)s1,5,-0.61
COc1ccc(C2(NC[C@H]3CCC=CO3)CCOCC2)cc1F,-10,1.87
CC(C)COc1ncccc1C(=O)N1CCNCC1,-10,1.32
COc1ccc(Nc2cc(C3CCC3)ncn2)cn1,-17,1.91
COCCN(CCOC)S(=O)(=O)NCc1cccnc1,-5,0.7
O=C(NCc1ccccc1Br)c1cncn1-c1cccc(-c2cccc(OC(F)(F)F)c2)c1,-20,2.82
CCOc1nccnc1N1CC[C@H](NS(=O)(=O)C2CC2)C1,5,-0.59
COc1ccccc1[C@H]1[C@@H](N)CCCN1C(=O)c1cc(C2CC2)on1,-3,0.52
O=C(CN1N=C(c2ccccc2F)c2cc(Cl)ccc2S1(=O)=O)Nc1ccccc1,-21,1.95
CC(C)c1nncn1CCNc1ncc(Cl)cn1,-4,0.77
O=C(Nc1cnccc1-n1cccn1)c1ccccc1OC1CC1,-9,1.59
O=C(N[C@H]1COCC[C@@H]1O)c1ccc(C(F)(F)F)cc1N1CCCC1,16,-2
Cc1ccc(CC(=O)NOCc2ccccn2)cc1,-5,0.51
